The supplement of paper PMC9433436
± gives the standard deviation of the averaged measurements. The full ranking holds about 4,100 sequences; the median of “relative kcat/Km (krel) vs genomic leader AAAGAU” is about 1.7, and the highest 2% start at about 6.5. The entries are a selection whose mix differs from that of the whole data set.

Biological target: T1, E. coli RNase P holoenzyme (M1 P RNA + rnpA protein) (UniProt P0A7Y8)
T1 sequence: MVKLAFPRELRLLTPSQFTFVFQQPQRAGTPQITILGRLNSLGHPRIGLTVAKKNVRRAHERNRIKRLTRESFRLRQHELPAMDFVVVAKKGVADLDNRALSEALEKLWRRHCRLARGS
Assay: relative kcat/Km (krel) vs genomic leader AAAGAU (relative (reference leader = 1)); higher = faster RNase P cleavage
Procedure: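 HTS-Kin: a pool of ptRNA-Met (21C construct) with all 4096 combinations of 5' leader nucleotides N(-6) to N(-1) was processed in vitro by E. coli RNase P (P RNA + rnpA/C5 protein) under multiple-turnover conditions at 37 C, pH 8, 17.5 mM MgCl2. Residual substrate was Illumina-sequenced at several fractions reacted, and relative kcat/Km (krel) was computed by internal competition kinetics, calibrated to the genomic leader (AAAGAU = 1). The listed hexamer is the varied N(-6)..N(-1) leader (DNA letters), and it sits between a fixed 5' stem-loop flank (GCAUGCACGAAAGUGCGUGCUAUGAA) and the mature tRNA-Met starting GGCUACGUAGCUCAGUUGG. Two technical replicates are averaged.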

[1] = fraction of substrate reacted: ~9-10% (9.79% repeat 1, 9.1% repeat 2)
[2] = fraction of substrate reacted: ~13-16% (15.68% repeat 1, 13.17% repeat 2)
[3] = fraction of substrate reacted: ~26-29% (28.66% repeat 1, 26.4% repeat 2)

Sequence	relative kcat/Km [1]	relative kcat/Km [2]	relative kcat/Km [3]
ACTACT	1.1 ± 0.62	1.54 ± 0.4	2.02 ± 0.23
GCCCCC	2.23 ± 1.1	1.9 ± 0.87	3.12 ± 0.62
CTCCTG			1.13 ± 0.85
ATTTGG	0.774 ± 0.73		0.957 ± 0.15
TAGTCG	1.47 ± 0.95	0.892 ± 0.38	2.03 ± 0.71
ACCCAA	2.3 ± 0.84	2.69 ± 0.25	4.83 ± 1.9
ACTCAG		0.397 ± 0.19	1.9 ± 0.19
GTCTCA	3.83 ± 1.2	5.79 ± 0.43	7.71 ± 2.8
TGTATT	2.22 ± 0.93	2.95 ± 0.64	4.73 ± 2.2
GCCATG			1.58 ± 0.63
GACGCG		0.59 ± 0.14	2.38 ± 0.093
GTGATA	0.914 ± 0.2	0.552 ± 0.27	1 ± 0.059
TTAGGA		1.62 ± 0.59	1.76 ± 1.6
TAGGTA			1.95 ± 1.7
TCACCG	1.87 ± 1.4	0.836 ± 0.24	1.62 ± 0.19
ATGTCT	1.82 ± 0.38	2.3 ± 0.33	2.43 ± 1
AGCGAG			1.56 ± 0.3
GATGCG			0.554 ± 0.53
GACGCT	2.24 ± 0.19	2.17 ± 0.8	3.11 ± 1.4
TCTCGG	1.19 ± 1.1	0.684 ± 0.45	1.04 ± 0.15
TATAAG	1.78 ± 1.7	1.54 ± 0.069	3.1 ± 0.87
TATTCG		1.65 ± 0.56	2.36 ± 0.92

Sequence	relative kcat/Km [1]	relative kcat/Km [2]	relative kcat/Km [3]
TGCTTA	1.81 ± 1.3	1.61 ± 0.04	2.75 ± 0.38
ATTTCA	2.01 ± 2	1.74 ± 0.69	2.45 ± 0.59
CGCAAT	1.86 ± 0.36	2.82 ± 1.1	4.14 ± 1.8
CGTAGG			1.42 ± 0.39
TTTAGC	2.66 ± 1.3	3.21 ± 0.063	4.7 ± 1.9
ATTTAT	3.82 ± 1.8	4.84 ± 0.46	7.02 ± 3
GCAATA	0.978 ± 0.89	0.845 ± 0.53	1.14 ± 0.03
TAAGTT	1.5 ± 1		1.45 ± 0.97
CGGTAC	3.2 ± 3	1.83 ± 0.77	1.09 ± 0.61
TCCGAC	3.47 ± 0.1	4.91 ± 1.2	
TTAATC	2.41 ± 1.7	2.073 ± 0.019	2.68 ± 1
AACCCA	1.77 ± 0.64	1.18 ± 0.27	1.78 ± 0.023
ATTGTG			0.393 ± 0.14
AGGTTC		0.57 ± 0.42	0.636 ± 0.45
TTGAAC	2.93 ± 0.52	3.49 ± 1.3	4.56 ± 1.5
GACTCT	2.87 ± 0.22	3.86 ± 1.1	5.7 ± 2
CGGAAG			0.852 ± 0.65
GAGGCG		0.117 ± 0.055	0.664 ± 0.042
CGAATC	1.55 ± 0.73	1.29 ± 0.5	2.3 ± 0.86
GCCGCC	2.33 ± 1.2	3.21 ± 1.2	5.43 ± 2.6
GGTTCC	1.32 ± 0.21	0.979 ± 0.62	1.42 ± 0.66
AAATTT	2.29 ± 0.55	2.26 ± 0.32	2.65 ± 0.88

Sequence	relative kcat/Km [1]	relative kcat/Km [2]	relative kcat/Km [3]
ATCGGG	0.593 ± 0.22	0.912 ± 0.81	0.785 ± 0.63
TGATAT	1.84 ± 0.025	3.77 ± 0.75	6.11 ± 3.1
TCTAAA	2.76 ± 1.5	3.02 ± 0.26	4.21 ± 1.6
ATTCGA	3.31 ± 1.6	3.17 ± 0.55	5 ± 2.2
CGTGGT			0.634 ± 0.27
TCTCAT	3.52 ± 0.79	4.87 ± 1.2	6.39 ± 2.9
CGGCGG	0.473 ± 0.059		
GTGGAG			1.02 ± 0.88
CGCAAA	2.58 ± 0.29	3.95 ± 1.1	4.9 ± 1.9
CCCAGC	1.94 ± 0.75	2.65 ± 1.3	4.66 ± 1.8
TAACCG			0.9 ± 0.51
TAGGTG			0.812 ± 0.66
GGATCA	0.973 ± 0.2	1.04 ± 0.42	1.53 ± 0.71
TTCGCA	4.21 ± 0.84	6.08 ± 1.7	
TGCTGA	1.907 ± 0.0028	1.69 ± 0.5	2.71 ± 1
ACCGCT	0.47 ± 0.2		1.19 ± 0.26
CTTGGT			0.402 ± 0.23
TCCTTT	3.7 ± 1.8	4.6 ± 0.8	
CACACT	2.56 ± 0.39	3.16 ± 0.72	4.82 ± 1.5
AATCTC	1.38 ± 0.14	1.64 ± 0.4	1.95 ± 0.53
GATTCG			0.817 ± 0.65
GCAGTT	0.536 ± 0.36	0.866 ± 0.18	0.976 ± 0.063

Sequence	relative kcat/Km [1]	relative kcat/Km [2]	relative kcat/Km [3]
TTTAAC	2.8 ± 0.84	3.648 ± 0.032	4.86 ± 1.9
CGGTGC	0.76 ± 0.49	0.769 ± 0.23	0.969 ± 0.17
TATTAT	4.02 ± 1.1	5.95 ± 1.7	9.03 ± 4.1
TAACAA	1.82 ± 1.3	2.15 ± 0.13	2.99 ± 0.79
TTGCCC	1.55 ± 1.3	1.28 ± 0.44	1.91 ± 0.28
GCGGGC	0.925 ± 0.52	1.46 ± 1.3	1.29 ± 1.2
CTTGAT		0.824 ± 0.72	1.11 ± 0.45
AGTCAG	2.12 ± 2	1.91 ± 0.42	3.69 ± 0.62
TACGCT	2.94 ± 1.9	2.46 ± 0.7	3.68 ± 1.8
GGAACG	0.645 ± 0.46		0.746 ± 0.21
TTCCGA	4.31 ± 1.2	6.28 ± 2	9.5 ± 4.6
GCTCCA	1.7 ± 1.3		1.07 ± 0.51
CAAAAC	1.4 ± 0.17	1.59 ± 0.4	2.51 ± 0.41
GATTTG		0.827 ± 0.14	1.13 ± 0.83
CGGGAT		1.32 ± 0.55	1.75 ± 1.6
GTTTCT	3.22 ± 1.4	3.27 ± 0.61	4.73 ± 1.5
GCCGAA	3.56 ± 1.2	4.16 ± 0.78	6.35 ± 2.4
CGAGCT	1.06 ± 0.76		1.05 ± 0.42
CCAGTT	1.98 ± 0.65	1.24 ± 0.19	0.893 ± 0.45
CCAATA	0.695 ± 0.4		1.1 ± 0.25
GGGGCA	0.654 ± 0.35	1.18 ± 0.32	1.22 ± 0.88
TTTAAA	3.37 ± 1.6	3.88 ± 0.2	5.35 ± 2.1

Sequence	relative kcat/Km [1]	relative kcat/Km [2]	relative kcat/Km [3]
ACTTAT	3.63 ± 1.5	4.92 ± 0.71	6.44 ± 2.8
TCAGAC	2.89 ± 0.81	3.55 ± 0.82	4.62 ± 1.8
TCTTTA	2.54 ± 1.4	2.57 ± 0.1	3.16 ± 1.1
GTTATG		1.56 ± 0.24	3.32 ± 0.7
ATCATA	3.61 ± 1.8	4.31 ± 0.3	5.9 ± 2.2
AATAGG			1.45 ± 0.4
TAAACC	1.52 ± 0.58	1.37 ± 0.18	1.68 ± 0.3
CATCGA	3.72 ± 1.8	4.33 ± 0.91	5.24 ± 2.1
CCCGAT	2.59 ± 0.49	2.76 ± 1.2	3.21 ± 0.9
GGCGAG			2.16 ± 0.18
AGACAA	3.11 ± 2.3	2.95 ± 0.47	4.55 ± 1.7
GATTCT	1.89 ± 0.36	3.34 ± 0.97	4.25 ± 1.6
TAAGCG			0.846 ± 0.39
TTGCAT	1.76 ± 0.73	1.954 ± 0.0045	3.61 ± 1.6
CCTTGT			1.54 ± 1.2
TTAGTT	0.656 ± 0.62		1.66 ± 1
ACAGTA	1.54 ± 0.77	1.23 ± 0.58	1.37 ± 0.085
CGCACC	1.49 ± 0.45	2.44 ± 0.52	3.15 ± 1.3
TATCCC		1.82 ± 1.3	1.98 ± 0.047
TGCCCC	2.02 ± 0.15	1.91 ± 0.36	2.67 ± 0.78
TTCGAC	5.66 ± 1.9	7.11 ± 1.7	10.2 ± 4.3
